From PubChem BioAssay AID624418 (National Center for Advancing Translational Sciences (NCATS), 2012)
The whole screen tested about 410,000 compounds, of which about 530 (0.13%) were called active. Inconclusive results, whose numbers are uncertain, are shown with a selection of clear calls. Calls follow the shape of the dose curve; as a rule, active = well fitted inhibition curve with a large enough effect; inconclusive = small, poorly fitted or top-dose-only effect, or another doubt; inactive = no such curve, though single readings can be large or run the other way. Potencies beside an inconclusive call are fits to weak or partial responses and may not hold up.

Assay: qHTS of GLP-1 Receptor Inverse Agonists: Cytotox Screen
Conditions: HEK293 cAMP-luciferase reporter cells, luminescence, 24 h; series mostly up to 38.3 µM
Method in brief: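 Cells in DMEM/10% Nu serum/1% pen-strep, 1536-well format. Pre-incubated 12 h, dosed with 23 nL compound, incubated a further 24 h. Luciferase detection, 12 min at room temp, luminescence.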
Potency is read from the fitted curve at half-maximal effect.

| Compound | Potency |
| --- | --- |
| O=C1CS(=O)(=O)N(Cc2cccc(F)c2)c2ccc(Br)cc21 | inactive |
| Cc1ccc(Cl)cc1NC(=O)CSc1nc2c(c(=O)[nH]1)CN(Cc1ccccc1)CC2 | inactive |
| Cc1cc(C(=O)N/N=C/c2cc([N+](=O)[O-])ccc2O)c2ccccc2n1 | inconclusive: 7.94 µM [inhibitor, partial curve, poor fit] |
| O=C(CSc1nc2cc(Cl)ccc2c(=O)n1Cc1ccco1)Nc1ccc(S(=O)(=O)N2CCOCC2)cc1 | inactive |
| Cc1[nH]n(-c2ccccc2)c(=S)c1C=Nc1ccc([N+](=O)[O-])cc1 | inconclusive: 28.2 µM [inhibitor, single point] |
| Cn1cnnc1SCC(=O)N(Cc1ccc2c(c1)OCO2)C1(C(=O)NC2CCCCC2)CCCC1 | inconclusive: 10 µM [inhibitor, single point] |
| Cn1cc(C(=O)C(=O)N2CCOCC2)c2ccccc21 | inconclusive: 5.62 µM [inhibitor, partial curve] |
| COc1ccc(CSCC(=O)N/N=C/c2ccccc2O)cc1 | inconclusive: 10 µM [inhibitor, single point] |
| CC(=O)Nc1ccc(OC(F)(F)C(F)F)c(NC(C)=O)c1 | inconclusive: 2.82 µM [inhibitor, full curve] |
| COc1cc(/C=N/NC(=S)Nc2cccc(S(=O)(=O)N(C)C)c2)ccc1O | inconclusive: 10 µM [inhibitor, partial curve, poor fit] |
| COc1ccc2c(c1)c1c(c(=O)n(-c3ccccc3C)c(=O)n1CC(=O)N1CCCC1)n2C | inactive |
| O=C(NC(=S)N1CCc2ccccc21)c1ccc(Br)o1 | inconclusive: 7.08 µM [inhibitor, partial curve, poor fit] |
| O=C(Nc1ccc(CN2CCOCC2)cc1)c1ccc(-c2ccc(Br)cc2)o1 | inconclusive: 28.2 µM [inhibitor, single point] |
| CCOc1ccc(CNC(=O)C2CCN(S(=O)(=O)c3cn(C)cn3)CC2)cc1OC | inactive |
| COc1ccc(NC(=S)Nc2ccccn2)c(OC)c1 | inactive |
| O=C(Nc1cccc(Cl)c1)Nc1csc([N+](=O)[O-])c1 | inconclusive: 28.2 µM [inhibitor, single point] |
| CCC(C)Sc1c(C(C)C)cnc2c1c(=O)n(C)c(=O)n2C (centres undefined) | inactive |
| Cc1ccc(NC(=S)N(CCCN2CCC(C)CC2)Cc2ccco2)cc1C | inconclusive: 28.2 µM [inhibitor, single point] |
| CCC1CCCCN1CCCNC(=O)CSc1nc2nc(C)c(Cc3ccc(C)cc3)c(C)n2n1 (centres undefined) | inconclusive: 15.8 µM [inhibitor, single point] |
